Reference: PubChem BioAssay AID686970 (National Center for Advancing Translational Sciences (NCATS), 2013)
About 6,000 (1.7%) of roughly 360,000 compounds were called active. The inconclusive results got no clear call from the source; some entries with a clear call stand among them for comparison. Calls come from the whole dose curve; as a rule, active = well fitted cell-killing curve with a large enough effect; inconclusive = small, poorly fitted or top-dose-only effect, or effect the other way; inactive = flat fitted curve, though single readings scatter. Potencies of inconclusive entries are left out as doubtful fits.

Test: qHTS for induction of synthetic lethality in tumor cells producing 2HG: qHTS for the HT-1080-NT fibrosarcoma cell line;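 note: NT is the 2HG producing partner of a matched IDH1 knockdown line; nearly all actives have a fitted effect of over 55% in size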;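 for activity, negative = less viability: 0% = DMSO-treated cells and -100% = media-only wells without cells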
Conditions: HT-1080-NT fibrosarcoma viability, CellTiter-Glo ATP luminescence, 48 h; activity, negative = less viability: at 46.1 µM (top of the series) unless noted
Summary of the method: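 750 cells/well, RPMI + 5% FBS; 2 h settle, compound pin-transfer, 48 h at 37 degrees C. CellTiter-Glo 10 min RT, luminescence. Normalized to DMSO and media-only wells.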
Potency is the fitted concentration of half-maximal effect; tags give direction and shape of the fitted curve.

Compound	Potency	activity, negative = less viability
COC(=O)c1cn(NC(=O)c2cc(OC)c(OC)c(OC)c2)c(=O)c2ccccc12	inconclusive [cytotoxic, single point]	
CSCCC(N=C(NS(=O)(=O)c1ccc(Br)cc1)c1ccccc1)C(=O)O (stereo unspecified)	inconclusive [rising, single point]	
COc1cc(SC)ccc1C(=O)Nc1ccc2c(c1)OCCO2	active: 1.78 µM	
O=C(Nc1ccc(Oc2ccccc2)cc1)c1csc(COCCO)n1	inconclusive [cytotoxic, full curve]	
O=C1c2cccc3c(N4CCOCC4)c([N+](=O)[O-])cc(c23)C(=O)N1c1cccc2ccccc12	inactive	
Cc1cc(C)nc(/N=C(\N)N(Cc2ccccc2)Cc2ccccc2)n1	inconclusive [cytotoxic, partial curve, poor fit]	
COc1ccc(-n2ccnc2SCC(=O)NCc2ccc(F)cc2)c(OC)c1		inconclusive: -21.6% [cytotoxic]
COc1cc(C(=O)N2CCC2(C)C(=O)NC(C)C)cc(OC)c1OC (stereo unspecified)	inconclusive [rising, single point]	
CN(C)C(CNC(=O)c1cc(Br)c(Br)s1)c1ccco1 (stereo unspecified)	inconclusive [cytotoxic, single point]	
COc1cccc(C(=O)Nc2ncc3c(n2)CC(c2ccc(OC)cc2OC)CC3=O)c1 (stereo unspecified)	active: 7.94 µM	
CCOc1ccc(CN(C(=O)c2ccccn2)c2ccc(OC)c(Cl)c2)cc1	inconclusive [cytotoxic, single point]	
C=CCOc1ccc(/C=N/NC(=O)C(=O)Nc2ccccn2)cc1OC	inactive	
CCC(=O)Nc1nnc(S(=O)(=O)N(CC)c2ccc(OC)cc2)s1	inactive	
N#Cc1c(N)nc2c(c1-c1cccc(O)c1)CCCCCC2	inconclusive [cytotoxic, single point]	
CCc1cccc(NC(=O)[C@@H]2CCCN2C2=NS(=O)(=O)c3ccccc32)c1	inactive	
COc1ccc(-c2cc(C(=O)O)[nH]n2)cc1OC	inactive	
O=C(Cc1ccccc1)Nc1ccc(NC(=O)c2cccnc2)cc1	inactive	
CNc1cc(-c2ccc(C(=O)OC)cc2)ncn1	inconclusive [rising, partial curve]	
O=C(/C=C/c1cccc([N+](=O)[O-])c1)c1ccc2c(c1)OCCO2	inconclusive [cytotoxic, single point]	
Cc1oc2c(F)c(F)c(F)c(F)c2c1S(=O)(=O)Nc1cccc(C(F)(F)F)c1	active: 3.26 µM	
CC(C)(CO)Nc1nc(Cl)nc(NC2CCCCC2)n1	inactive	
COc1cccc(CNc2nc(NC(C)C)nc3ccsc23)c1	inconclusive [cytotoxic, full curve]	
O=C(N/N=C/c1c[nH]c2ccc(Br)cc12)c1ccc2c(c1)OCO2	inconclusive [cytotoxic, single point]	
O=C(c1ccc(Br)o1)N1CCN=C1SCc1cccnc1	inactive	
COc1cc(/C=C2\SC(=O)NC2=O)ccc1Oc1cnccn1	inactive	
C=C(CC)C(=O)c1ccc(OCC(=O)O)c(Cl)c1Cl	active: 18.4 µM	

Compound	Potency	activity, negative = less viability
Cc1ccc(NC(=O)NCc2ccccn2)c(C)c1	inconclusive [rising, single point]	
COc1ccc(N(CC(=O)Nc2ccc(C)c(C)c2)S(=O)(=O)c2c(C)noc2C)cc1	inconclusive [cytotoxic, single point]	
CCc1cc(-c2n[nH]c(C)c2-c2nc(C)cs2)c(O)cc1OC	inconclusive [cytotoxic, single point]	
Cc1onc(C(=O)NCCc2ccccc2)c1[N+](=O)[O-]	inconclusive [cytotoxic, single point]	
Cc1noc(C)c1COc1ccccc1C(=O)N1CCN(S(=O)(=O)c2ccccc2C(F)(F)F)CC1	inactive	
CCCCNS(=O)(=O)c1ccc2nc(SCC(=O)c3ccccc3OC)[nH]c2c1	inconclusive [cytotoxic, single point]	
CCOc1ccc(C(=O)Nc2ccc(N3CCN(C(=O)c4ccco4)CC3)cc2)cc1Br	inactive	
Cc1ccc2[nH]c3c(Cl)ncnc3c2c1	inconclusive [cytotoxic, single point]	
CCC(C)NCCOc1ccc(C(C)(C)c2ccccc2)cc1 (stereo unspecified)	active: 18.4 µM	
CCCCCCC(=O)Nc1nc(C)c(-c2csc(Nc3ccc(Cl)cc3)n2)s1	active: 20.6 µM	
COc1ccccc1C(=O)Nc1ccc2c(c1)CCCN2C(=O)c1ccccc1	active: 18.4 µM	
c1coc(CN=C2NC(=NCc3ccco3)c3ccccc32)c1	inconclusive [cytotoxic, single point]	
N#Cc1c(-c2ccccc2)cc(C2CC2)nc1N	inactive	
O=C(NCc1ccncc1)c1cccc(S(=O)(=O)NCc2ccccc2)c1	inactive	
COc1ccc(-c2nc3nc(C)cc(=O)n3[nH]2)cc1	inactive	
CCOC(=O)c1sc(-c2ccc(Cl)cc2)nc1O	inactive	
CC(=O)N(C(C)=O)c1ncc2c([nH]c3ccccc32)c1C#N	active: 11.2 µM	
COC(=O)c1cccc(NC(=O)c2cccnc2)c1	inactive	
CCCN1C(=O)/C(=C/c2ccc(C)o2)SC1=Nc1ccc(OC)cc1	inconclusive [cytotoxic, single point]	
O=S(=O)(Nc1ccc(-n2cccc2)cc1)c1ccc(F)cc1	inactive	
O=C(CCl)N1CCN(S(=O)(=O)Cc2ccccc2)CC1	inconclusive [cytotoxic, single point]	
Cn1cc(C(=O)C(=O)N2CCCC2)c2ccccc21	inconclusive [rising, single point]	
CCN(CC)c1ccc(/C=N/NC(=O)c2cccc(S(=O)(=O)N3CCOCC3)c2)c(O)c1	inconclusive [cytotoxic, partial curve, poor fit]	
Nc1nnc(-c2ccc([N+](=O)[O-])o2)s1	active: 23.1 µM	
Nc1nn(-c2ccccc2)c(N)c1N=Nc1ccc2c(c1)OCO2	active: 18.4 µM	
O=C(C1CC1)N1CCC(Oc2cccc(C(=O)N3CCCCC3CCO)c2)CC1 (stereo unspecified)	inactive	

Compound	Potency	activity, negative = less viability
Cc1ccc(-c2onc3ccc(C4OCCO4)cc23)cc1	inactive	
Cc1c(C)c2c(OCC(=O)N[C@@H](CC(C)C)C(=O)O)cc3c(c2oc1=O)CCC(C)(C)O3	inconclusive [cytotoxic, full curve]	
COc1ccccc1S(=O)(=O)N(C)C[C@@H]1OCc2cnnn2CCCC(=O)N([C@@H](C)CO)C[C@H]1C	inactive	
CCCCC[C@@H](/C=C/C1C(=O)C=C[C@H]1C/C=C\CCCC(=O)OC)OC(C)=O (stereo partly specified)	inconclusive [cytotoxic, single point]	
O=C(NC(c1ccc(Cl)cc1)c1cnccn1)C1CCN(Cc2cccc(C(F)(F)F)c2)CC1 (stereo unspecified)	inconclusive [cytotoxic, single point]	
CCOc1ccc(NCc2cccn2-c2nnc(N3CCC(C(=O)NCCCN4CC(C)CC(C)C4)CC3)s2)cc1 (stereo unspecified)	active: 20.6 µM	
COc1cccc(C(=O)Nc2cccc(-c3ccc(N4CCOCC4)nn3)c2)c1	inactive	
Cc1ccc(S(=O)(=O)N2CCN(CCNC(=O)C(=O)Nc3ccc(F)cc3)CC2)cc1	inconclusive [cytotoxic, single point]	
COc1ccc(-c2c(C)nn3c(N4CCCCCC4)cc(C)nc23)cc1OC	inconclusive [cytotoxic, single point]	
FC(F)Sc1ccc(NC(=S)NC(c2ccccc2)c2ccccc2)cc1	inconclusive [cytotoxic, single point]	
COc1ccccc1Nc1nc(N)nc(CCl)n1	active: 23.1 µM	
CC1(Cc2ccccc2C#N)C(=O)Nc2ccc(-c3ccc4[nH]ccc4c3)cc21 (stereo unspecified)	active: 7.31 µM	
CCc1nc2c(OCc3ccc(Cl)cc3Cl)cccn2c1N(C)C(C)=O	inconclusive [cytotoxic, single point]	
O=C(Cc1cccs1)Nc1nc(-c2ccccc2)cs1	inactive	
CC(=O)Nc1cccc(-c2ccnc3c2CC(C)(C(=O)Nc2ccc(C(C)C)cc2)O3)c1 (stereo unspecified)	inconclusive [cytotoxic, single point]	
CC(C)(C)NC(=O)C(c1ccccc1)n1c(=O)c(-c2cc3ccccc3[nH]2)nc2ccccc21 (stereo unspecified)	inconclusive [cytotoxic, single point]	
COc1ccc(-c2noc3c2-c2nc(-c4ccccc4F)sc2CC3)cc1	inconclusive [cytotoxic, single point]	
O=C1N=C2SCCN2/C1=C\c1ccc(Cl)cc1	inconclusive [cytotoxic, single point]	
OC1(c2ccc(Cl)cc2)CCN(Cc2cn[nH]c2-c2ccc(F)cc2)CC1	active: 20.6 µM	
Cc1cc(=O)[nH]c(SCC(=O)C23CC4CC(CC(C4)C2)C3)c1C#N	inconclusive [cytotoxic, single point]	
COc1cc(-c2ccc3sc(-c4ccsc4)c(C#CCO)c3c2)cc(OC)c1OC	inconclusive [cytotoxic, single point]	
O=C(c1ccc2c(=O)n3c(nc2c1)CCCCC3)N1CCN(c2ccc([N+](=O)[O-])cc2)CC1	inactive	
CCN(CC)C(=O)CSc1nc(OC)cc(=O)[nH]1	inactive	
Cc1cc2nc(C3CCCCC3)c(Cc3ccsc3)n2c(C)c1Br	inconclusive [cytotoxic, single point]	
